“And” between values parts separate entries of the source, which are not always exact repeats. Identical values can stand only once. The list shows a part of the results. These are further read-outs of the screen, such as a control signal, another cell line or another target. No call is given for them.
Experiments:
Assay in all cases: Primary Screen for Target Class Profiling of Small Molecule Inhibitors of Methyltransferases
[1] = target: Glycine N-methyltransferase (Homo sapiens) (UniProt Q14749); conditions: purified enzyme, MTase-Glo SAH luminescence; measured here: GNMT inhibition; at 40 µM; stronger effect = lower value
Procedure, shortened: (§1)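 Each enzyme was reacted with SAM and its substrate, with compounds tested once at 40 uM; SAH formed was read by MTase-Glo luminescence.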

[2] = target: Guanidinoacetate N-methyltransferase (Homo sapiens) (UniProt Q14353); conditions: purified enzyme, MTase-Glo SAH luminescence; measured here: GAMT inhibition; at 40 µM; stronger effect = lower value
Procedure, shortened: as §1

[3] = target: Histamine N-methyltransferase (Homo sapiens) (UniProt P50135); conditions: purified enzyme, MTase-Glo SAH luminescence; measured here: HNMT inhibition; at 40 µM; stronger effect = lower value
Procedure, shortened: as §1

[4] = target: Nicotinamide N-methyltransferase (Homo sapiens) (UniProt P40261); conditions: purified enzyme, MTase-Glo SAH luminescence; measured here: NNMT inhibition; at 40 µM; stronger effect = lower value
Procedure, shortened: as §1

[5] = target: Phenylethanolamine N-methyltransferase (Homo sapiens) (UniProt P11086); conditions: purified enzyme, MTase-Glo SAH luminescence; measured here: PNMT inhibition; at 40 µM; stronger effect = lower value
Procedure, shortened: as §1
% is set by controls: 0 for no effect and ±100 for the full control effect.

SMILES | activity change, negative = inhibition [1] | activity change, negative = inhibition [2] | activity change, negative = inhibition [3] | activity change, negative = inhibition [4] | activity change, negative = inhibition [5]
COc1ccc(C2c3cccn3-c3ccccc3CN2C(=O)NCc2cccc(OC)c2)cc1 (centres undefined) | 7.41% | 4.31% | 7.28% | -1.79% | 3.48%
COc1ccc(C2c3cccn3-c3ccccc3CN2C(=O)NC2CCCC2)cc1 (centres undefined) | 7.52% | 0% | 1.78% | -2.91% | 4.28%
O=C(Nc1ccc2c(c1)OCCO2)N1Cc2ccccc2-n2cccc2C1c1cc(F)cc(F)c1 (centres undefined) | 8.94% | 0% | 0.531% | 7.51% | 6.96%
CNC1CCc2ccccc21 (centres undefined) | -4.82% | -4.57% | -19.9% | -11.8% | -50.2%
Cc1cccc(NC(=O)N[C@@H]2N=C(c3ccccc3)c3ccccc3N(C)C2=O)c1 | 5.26% | -4.41% | 4.98% | -33.3% | -4.6%
O=C(Nc1ccccc1Br)N1Cc2ccccc2-n2cccc2C1c1ccccc1 (centres undefined) | 1.24% | 3.85% | -5.29% | -6.57% | -3.41%
CN(C(=O)Cc1ccc(Cl)c(Cl)c1)C(CN1CCCC1)c1cccc(OCC(=O)O)c1 (centres undefined) | -4.97% | 1.78% | -4.44% | -6.45% | 6.29%
NCCc1ccc(O)cc1 | 5.7% | 12.4% | -94.2% | -3% | -0.407%
O=[S+]([O-])(C1CC1)N1C2CCC1CN(Cc1cccnc1)C2 | -5.35% | -8.39% | -2.24% | -10% | -3.67%
CCOCCCNC(=O)N1Cc2ccccc2-n2cccc2C1c1ccc(OCC)cc1 (centres undefined) | -1.28% | 2.81% | 9.91% | 4.15% | 8.97%
COc1ccc(C23CCC(=O)C=C2N(C)CC3)cc1OC (centres undefined) | -6.37% | -12.2% | -1.2% | -20.3% | -12.3%
CCOC(=O)CNC(=O)N1Cc2ccccc2-n2cccc2C1c1ccc(C(C)C)cc1 (centres undefined) | -4.57% | 3.52% | 7.49% | -3.87% | 2.73%
COc1ccc(-c2cc([C@H]3CN4CC[C@H]3C[C@@H]4CN)nc(C)n2)cc1OC | -23.5% | -1.27% | -57.3% | -40% | -6.2%
Cc1ccc(C2c3cccn3-c3ccccc3CN2C(=O)Nc2ccc(C)c(Cl)c2)cc1 (centres undefined) | 5.36% | 6.73% | -7% | -6% | -0.948%
NNC(N)=O | -4.05% | 7.25% | 0.233% | -2.41% | 7.94%
Cn1nc(-c2ccc(F)cc2)cc1[C@H]1CN2CC[C@H]1C[C@@H]2CNC(=O)c1cccs1 | -5.3% | -4.29% | -23% | -11.6% | -2%
N#C[C@@H](O[C@@H]1O[C@H](CO[C@@H]2O[C@H](CO)[C@@H](O)[C@H](O)[C@H]2O)[C@@H](O)[C@H](O)[C@H]1O)c1ccccc1 | -0.436% | -1.53% | 3.61% | -11% | -8.55%
Oc1ccc2c3c1O[C@H]1[C@H](N(CCCl)CCCl)CC[C@@]4(O)[C@@H](C2)N(CC2CC2)CC[C@]314 | 2.8% | -1.26% | 12% | -7.84% | 6.11%
COc1ccc(NC(=O)N2Cc3ccccc3-n3cccc3C2c2cccs2)c(OC)c1 (centres undefined) | 3.16% | 4.65% | -4.17% | -2.85% | 3.95%
CC(C)N(CCNC(=O)CN1CCCC1=O)C(C)C | 5.73% | 9.55% | 11.2% | -6.96% | 6.74%
CCC1c2cccn2-c2ccccc2CN1C(=O)Nc1cc(C(=O)OC)ccc1C(=O)OC (centres undefined) | 1.63% | 0.988% | -0.349% | 0.906% | 4.13%
CCOC(=O)c1ccc(NC(=O)N2Cc3ccccc3-n3cccc3C2c2cc(F)cc(F)c2)cc1 (centres undefined) | -0.711% | 3.89% | 0.283% | -5.22% | -0.319%
Cc1ccc(NC(=O)N2Cc3ccccc3-n3cccc3C2c2cccc(Cl)c2)c(Cl)c1 (centres undefined) | 14.7% | 7.08% | 11.5% | 8.87% | 10.4%
CC(=O)N1CCCC2(CC(c3cccnc3)=NO2)C1 (centres undefined) | -1.38% | -2.07% | 1.33% | -4.33% | -2.5%
C[C@@H]1O[C@@H](O[C@H]2CC[C@@]3(C)C(CC[C@@H]4C3CC[C@]3(C)[C@@H](C5=CC(=O)OC5)CC[C@]43O)C2)[C@H](O[C@@H]2O[C@H](CO)[C@@H](O)[C@H](O)[C@H]2O)[C@H](O)[C@H]1O (some centres undefined) | 4.49% | 6.39% | 11.9% | -5.73% | 4.78%
COC(=O)c1cccc(NC(=O)N2Cc3ccccc3-n3cccc3C2c2cccc(Cl)c2)c1 (centres undefined) | 13.7% | 0.397% | 5.6% | 0.23% | -5.28%
CCN1C[C@]2(COC)[C@H](O)C[C@H](OC)[C@]34[C@@H]5C[C@]6(O)[C@H](OC(=O)c7ccccc7)[C@@H]5[C@@](O)([C@H]([C@H](OC)[C@H]23)[C@@H]14)[C@@H](O)[C@@H]6OC | 7.18% | 10.4% | 5.95% | -3.68% | 6.23%
COC1CC(O[C@H]2CC[C@@]3(C)C(CCC4C3CC[C@]3(C)C(C5=CC(=O)OC5)CCC43O)C2)OC(C)C1OC1OC(COC2OC(CO)C(O)C(O)C2O)C(O)C(O)C1O (some centres undefined) | -4.95% | -11.4% | 2.04% | -19% | -5.26%
CC(N[C@H]1C[C@H]1c1ccccc1)c1ccc2c(c1)OCCO2 (some centres undefined) | -5% and -4.15% | – | 4.47% and -3.22% | -42% | -32.7%

— PubChem BioAssay AID1745853 (National Center for Advancing Translational Sciences (NCATS), 2022)
